Measurements: PMC5515408
Some of the results follow. At the low end of the ranking, values are background and their order means little.

What follows are sequences tested against MAX:MAX (p21) (UniProt P61244-2) (assay: protein-binding microarray (anti-MAX antibody)). Conditions: PBM: 15 mM Tris-HCl pH 7.5, 100 mM KCl, 0.075% NP40, 7.5 mM beta-mercaptoethanol, 375 ng/ul BSA, 8 ng/ul poly(dA-dT):(dA-dT), 550 ng complex, 60 min, room …; high values mean tight binding; double strand, one strand shown; sequences stand for … in CCGGC…TTAATAGCTAAGATTACTATATCGACG.

Row | Sequence | binding signal (log2 normalized fluorescence)
1 | TGAAGTCATGTA | 0.195
2 | TGACACGGGTTT | 2.09
3 | TTACAGGTGGTT | 2.48
4 | TGGCACCTGGCA | 2.17
5 | TGAATGAAGGTA | -0.325
6 | TGAGAAAGAGTA | -1.02
7 | TGAATATCCGTA | -1.01
8 | TGATTTCCAGTA | -1.12
9 | TGAGAGGTTGTA | -0.435
10 | TGAAGGCCTGTA | 0.00898
11 | TGACTGAGTGTA | -0.0431
12 | TCTCAGGTGGTA | 2.4
13 | TGATGAAGGGTA | -0.578
14 | TGACTCCCAGTA | -0.845
15 | TGAGACAGTGTA | -0.443
16 | TGAGTAAGGGTA | -1.05
17 | TGACTGCTTGTA | -0.193
18 | TGAGAGGCCGTA | -0.846
19 | TGAGAAAACGTA | -0.596
20 | TGAGAAGGGGTA | -0.308
21 | TGAAAATCCGTA | -0.874
22 | TGAAAACCTGTA | -0.14
23 | TGAGTTTGCGTA | -0.942
24 | TGAAGCTACGTA | -0.84
25 | TTACACATGCTA | 3.23

Row | Sequence | binding signal (log2 normalized fluorescence)
26 | TGACCGGAAGTA | -0.775
27 | TGAGCATGAGTA | 1.93
28 | TGAGTTTGTGTA | -0.951
29 | TGAAAGGCAGTA | -0.493
30 | TGAAATGATGTA | -0.049
31 | TGATCCTTAGTA | -1.1
32 | TGACAATGCGTA | 0.927
33 | TGACCCGTCGGA | -0.529
34 | TGAGGCTTCGTA | -0.948
35 | TGACAATTGGTA | -0.507
36 | TGGCAAGTGGTA | 0.992
37 | TGAAACATTGTA | 0.094
38 | TGACGTCGTGTA | 0.752
39 | TGAACTGTTGTA | -0.584
40 | TGACGCGTCGTG | 0.94
41 | TGACTCAAGGTA | 0.208
42 | TGAAGTTTCGTA | -1.05
43 | TGATGCAGGGTA | -0.0263
44 | TGACACGTAACA | 1.37
45 | TGAAATCGTGTA | 0.588
46 | TGAATCTTCGTA | -0.77
47 | TGATTCCATGTA | -0.26
48 | TGACTGAACGTA | -0.326
49 | TGACAATCGGTA | -0.724
50 | TGACACGTTTGA | 2.82

Row | Sequence | binding signal (log2 normalized fluorescence)
51 | TGAAGATAGGTA | -1.1
52 | TGAGCGTGAGTA | 1.56
53 | TGAATTGAGGTA | -0.518
54 | TGAGCCCGGGTA | -1.09
55 | TGATGATACGTA | -0.0182
56 | TGAGGTGCCGTA | -0.395
57 | TGACACCTACTA | -0.0238
58 | TGAGCCAATGTA | -0.709
59 | TGATTAGGGGTA | -0.289
60 | TGATAAATTGTA | -1.25
61 | TGGCACGTGGTT | 3.33
62 | TGAGATCGGGTA | -1.15
63 | TGAAGTCGGGTA | -1.26
64 | TGATTTCACGTA | -0.141
65 | TGATTCCCTGTA | -0.643
66 | TGATTGGCAGTA | -0.607
67 | TGAAAAACAGTA | -0.841
68 | TGAGGGAATGTA | -0.0661
69 | TGATCGTTCGTA | -0.331
70 | TGAGTCTAAGTA | -1.08
71 | TGATACGACGTA | -0.643
72 | TGAGGCTGCGTA | -0.197
73 | TGCCTCGTGGTA | 3.36
74 | TGAATGTCTGTA | 0.29
75 | TGAGGTTCGGTA | -0.923

Row | Sequence | binding signal (log2 normalized fluorescence)
76 | TGATCTTTTGTA | -1.35
77 | TGACAACTGGTA | -0.279
78 | TGAGAGGTCGTA | -0.308
79 | CCACACGTGGTG | 3.11
80 | TGACCGGCGGTA | -0.238
81 | TGAGTTTAGGTA | -0.968
82 | TGACAGACGGTA | -0.0666
83 | TAACACCTGGTG | 2.98
84 | TGAACAGTGGTA | -0.573
85 | GCTGACGCGGTT | -0.216
86 | TGACACGTAGCT | 1.51
87 | TGAGTATGCGTA | 0.00997
88 | TGACCACTCGTA | 0.109
89 | TGACAAACCGTA | -0.423
90 | TGAGAGGCGGTA | -0.537
91 | TGATCAATAGTA | -1
92 | TGATGTGGGGTA | 0.595
93 | TAAGACTTGGTA | -0.976
94 | TGACACGTTGTA | 2.96
95 | TGACACGTGGAT | 3.24
96 | TGAAACTTTGTA | -1.01
97 | TGACACGAGGTA | 3.08
98 | TGACCAATTGTA | -0.72
99 | TCACATGTGTTA | 3.25
100 | TGATCAAATGTA | -0.224

Row | Sequence | binding signal (log2 normalized fluorescence)
101 | TGATGTTCCGTA | -0.058
102 | TGAGATACGGTA | -0.729
103 | GTTCACGTGGTA | 3.37
104 | TGACCTGTCGTA | -0.255
105 | TCGTACGTGGTA | 1.45
106 | TGACGATCCGTA | -0.597
107 | TGACCGGGAGTA | -0.487
108 | TGATCTCACGTA | -0.038
109 | TCAAACATGGTA | 1.7
110 | TGACGTTCCGTA | -0.512
111 | TGAGGGCTTGTA | -0.432
112 | TGATTGCCGGTA | -0.626
113 | TGACACGTGCCG | 3.41
114 | TGAATGAACGTA | 0.00913
115 | CTTCTCTGTCTC | -1.47
116 | TGAGGAGATGTA | -0.451
117 | TGAACTGTAGTA | -0.787
118 | TGAATAGCAGTA | -1.13
119 | TGAGAACGTGTA | 2.16
120 | TAACACGTGGTA | 3.45
121 | TGAATTCGTGTA | -0.0457
122 | TGATATTGCGTA | -0.611
123 | TGATGTGAAGTA | -0.106
124 | TGAGTGTTGGTA | -0.23
125 | TGATAAGGGGTA | -0.464

Row | Sequence | binding signal (log2 normalized fluorescence)
126 | TGACCCTCTGTA | -0.425
127 | TTACACGTGGCG | 3.07
128 | TGAAGGCGAGTA | -0.233
129 | TGAGACCATGTA | 0.385
130 | TGATTCGTTGTA | -0.814
131 | TGATGCAATGTA | -0.107
132 | TGAAACAGGGTA | -0.283
133 | TGATACGGCGTA | -0.891
134 | TGACGCCGTGTA | 0.693
135 | TGAGCTATGGTA | -0.544
136 | TCAAAAGTGGTA | -0.449
137 | TGAGCGGCAGTA | -0.716
138 | TTATACGTGATA | 0.467
139 | TGATCTTAAGTA | -0.996
140 | TGACGAAGTGTA | -0.547
141 | TGACAAGCCGTA | -0.454
142 | TGAGCGGCCGTA | -1.04
143 | TGACATCGGGTA | 0.225
144 | TGAGAGTCGGTA | -1.2
145 | TGAGGTGCGGTA | 0.226
146 | TGATTGTAAGTA | -0.594
147 | TGAAACGTGTTA | 3.05
148 | TGACTGTAAGTA | -0.4
149 | TGAAATGGGTTT | -0.419
150 | TGAAGTGCGGTA | 0.541

Row | Sequence | binding signal (log2 normalized fluorescence)
151 | TGATGTAGTGTA | -0.162
152 | TGATTGCACGTA | 0.423
153 | TGACCCGGAGTA | -0.596
154 | TGACACATGCAA | 3.17
155 | TGACTCGTGGTA | 2.95
156 | TGAGGCTGAGTA | -0.711
157 | TGATCCAGCGTA | -1.01
158 | TGAGTATTTGTA | -1.13
159 | TGAACACACGTA | 1.45
160 | TGAGGCCCAGTA | -0.652
161 | TGAGCTCCCGTA | -1.07
162 | TAACACGTTGTA | 3.12
163 | TGATGGACTGTA | 0.00745
164 | TGACGAACTGTA | -0.551
165 | TGAAGTTTGGTA | -1.06
166 | TGAATTAGGGTA | -1.09
167 | TGATTACACGTA | 0.436
168 | TGAGATAGCGTA | -1.04
169 | TGAGCTATTGTA | -1.4
170 | TGAATGTTGGTA | 0.124
171 | TGACGGGAAGTA | -0.802
172 | TGACACGTGTTA | 3.29
173 | TGAGCTCAGGTA | -0.146
174 | TGACCCTATGTA | 0.382
175 | TGGAACGTCGTA | -0.338
